To fix the notation:
B1: Caulobacter ParB omega fusion; a variant is named by its letters at X, in order, B8GW30 (parent)
chain: MESVVVGEPGMSEGRRGLGRGLSALLGEVDAAPAQAPGEQLGGSREAPIEILQRNPDQPRRTFREEDLEDLSNSIREKGVLQPILVRPSPDTAGEYQIVAGERAWRAAQRAGLKTVPIMVRELDDLAVLEIGIIENVQRADLNVLEEALSYKVLMEKFERTQENIAQTIGKSXSHVANXMRLLXLPDEVQSYLVSGELTAXHARAIAAAADPVALAKQIIEGGLSVRETEALARKAPNLSAGKSKGGRPPRVKDTDTQALESDLSSVLGLDVSIDHRGSTGTLTITYATLEQLDDLCNRLTRGI

Whole data set: some 81,000 sequences, median “one-hybrid fitness for binding NBS DNA” near -0.1, cut for the highest 2% near 0.36. Some of the results follow. Bounds are passed on as bounds.

Experimental findings from a collection of fitness landscapes (doi:10.1016/j.celrep.2020.107928) are described below.

Variants of B1 are the subject of this experiment. Put plainly: one-hybrid fitness for binding NBS DNA (the Noc-binding site; scaled: cognate 1, non-cognate 0); higher = stronger binding. As to conditions: with NBS DNA site. The essentials: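 Values were rescaled so that cognate is 1 and non-cognate is 0. Each is a fitness, the log change in a variant's read ratio to wild type from Illumina reads of plasmids before and after selection, with three replicate libraries pooled and variants under 10 reads dropped. Selection of the Caulobacter ParB libraries, four specificity codons randomised, used E. coli USO with a HIS3 reporter, site 19 bp from the promoter, on M9-minus-histidine with 0.1 mM IPTG and 5 mM 3-AT for 48 hours at 37°C.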
In the case of MTAY, the “one-hybrid fitness for binding NBS DNA” value was not above 0.2.
For the variant QHSF, the “one-hybrid fitness for binding NBS DNA” value is not above 0.2.
The value for RMDN was not above 0.2.
CFLC: the “one-hybrid fitness for binding NBS DNA” value was not above 0.2.
Take RHIY: the “one-hybrid fitness for binding NBS DNA” value is not above 0.2.
The value for VNEL was not above 0.2; that for LRVR was 0.207; that for VHLK was not above 0.2.
The value for AKYT was not above 0.2; that for IVQY was not above 0.2; that for ENKS was not above 0.2.
As for RTIS, the figure is 0.34; as for PFAY, not above 0.2.
Turning to NNTL, the “one-hybrid fitness for binding NBS DNA” value is not above 0.2.
Turning to YTDS, the “one-hybrid fitness for binding NBS DNA” value is not above 0.2.
Take EKSL: the “one-hybrid fitness for binding NBS DNA” value is not above 0.2.
The value for ENLS was not above 0.2.
As for LSHM, the figure is not above 0.2.
As for DNDG, the figure is not above 0.2; as for GRIT, not above 0.2; as for TSMR, not above 0.2.
FDNR: the “one-hybrid fitness for binding NBS DNA” value is not above 0.2.
The value for PMAW was not above 0.2; that for WLHS was not above 0.2; that for LVWT was not above 0.2.
As for FTLT, the figure is not above 0.2; as for TLSF, not above 0.2; as for AQPS, not above 0.2.
As for WADG, the figure is not above 0.2; as for PSFV, not above 0.2.
In the case of VRKH, the “one-hybrid fitness for binding NBS DNA” value worked out at 0.208.
The value for TMPM was not above 0.2; that for ISKS was not above 0.2.
The value for HEER was not above 0.2; that for MQLP was not above 0.2.
As for WNHC, the figure is not above 0.2.
Take LCNM: the “one-hybrid fitness for binding NBS DNA” value was not above 0.2.
The value for PCCC was not above 0.2; that for CDHF was not above 0.2; that for LYVG was not above 0.2.
As for GHND, the figure is not above 0.2.
As for FKPT, the “one-hybrid fitness for binding NBS DNA” value was not above 0.2.
The value for YHLT was not above 0.2; that for TITR was not above 0.2; that for TGHF was not above 0.2.
Consider QCNC, for which the “one-hybrid fitness for binding NBS DNA” value was not above 0.2.
As for HDRT, the figure is not above 0.2; as for TGHS, not above 0.2.
Regarding HNRP, the “one-hybrid fitness for binding NBS DNA” value was not above 0.2.
As for DNYM, the figure is not above 0.2.
Take SWQI: the “one-hybrid fitness for binding NBS DNA” value was not above 0.2.
Take RPLY: the “one-hybrid fitness for binding NBS DNA” value is not above 0.2.
As for YHCN, the “one-hybrid fitness for binding NBS DNA” value was not above 0.2.
Consider LRNS, for which the “one-hybrid fitness for binding NBS DNA” value was not above 0.2.
Turning to CVLG, the “one-hybrid fitness for binding NBS DNA” value was not above 0.2.
As for QPGV, the figure is not above 0.2.
As for ENRS, the figure is not above 0.2; as for RGTV, not above 0.2.
As for QCMV, the figure is not above 0.2; as for SKST, not above 0.2.
For IEIW, the “one-hybrid fitness for binding NBS DNA” value is not above 0.2.
As for AQLR, the figure is not above 0.2; as for FFRV, not above 0.2.
As for TWLS, the figure is not above 0.2.
The value for PQQP was not above 0.2.
For TRYC, the “one-hybrid fitness for binding NBS DNA” value is not above 0.2.
The value for QTNR was 0.936.
As for AQPW, the figure is not above 0.2.
The value for PKDC was not above 0.2; that for RLDQ was not above 0.2; that for KLQT was not above 0.2.
With DRGC, the “one-hybrid fitness for binding NBS DNA” value was not above 0.2.
The value for RPHG was not above 0.2.
As to DMYS, the “one-hybrid fitness for binding NBS DNA” value is not above 0.2.
As for LFQS, the figure is not above 0.2; as for QAEM, not above 0.2; as for ARRD, not above 0.2.
As for TRLP, the figure is not above 0.2; as for PHRK, not above 0.2.
The value for KSKH was not above 0.2; that for NRTI was not above 0.2.
With YSCT, the “one-hybrid fitness for binding NBS DNA” value is not above 0.2.
The value for CTDS was not above 0.2; that for NMFN was not above 0.2.
As for CGRV, the figure is not above 0.2; as for LLTG, not above 0.2; as for YRDT, not above 0.2.
For the variant IGPL, the “one-hybrid fitness for binding NBS DNA” value was not above 0.2.
The value for HIPL was not above 0.2.
The value for APDR was not above 0.2; that for ISHT was not above 0.2; that for QPAK was not above 0.2.
As for GFQS, the figure is not above 0.2; as for ASSY, not above 0.2.
Turning to GDRV, the “one-hybrid fitness for binding NBS DNA” value is not above 0.2.
The value for LSTM was not above 0.2.
As for MAIC, the figure is not above 0.2.
